Test results: PubChem BioAssay AID540317 (National Center for Advancing Translational Sciences (NCATS), 2011)
Out of some 390,000 compounds screened, about 2,200 (0.56%) were called active. The shares of active, inactive and inconclusive entries below differ from those in the screen. Calls follow the shape of the dose curve; as a rule, active = well fitted inhibition curve with a large enough effect; inconclusive = small, poorly fitted or top-dose-only effect; inactive = no such curve, though single readings can be large or run the other way. A potency beside an inconclusive call is a rough fit, not a confirmed value.

The molecules below were run against Chromobox protein homolog 1 (Homo sapiens) (UniProt P83916) (assay: HTS for Inhibitors of HP1-beta Chromodomain Interactions with Methylated Histone Tails). Conditions: AlphaScreen HP1-beta / biotin-H3K9me3 peptide binding; series mostly up to 114 µM.
Summary of the method: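 Compound inhibition of the preformed complex between 50 nM HP1-beta and 50 nM biotinylated H3K9me3 peptide was read by AlphaScreen. Buffer was PBS pH 7.4 with 0.01% Tween-20. Incubations ran 30 min at room temperature, with 10 ug/mL donor/acceptor beads.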
Also: nearly all actives have a fitted effect of over 70% in size.
Potency is read from the fitted curve at half-maximal effect; tags tell the direction and shape of the fitted curve.

Sequence of UniProt P83916 (P83916 whole entry, looked up): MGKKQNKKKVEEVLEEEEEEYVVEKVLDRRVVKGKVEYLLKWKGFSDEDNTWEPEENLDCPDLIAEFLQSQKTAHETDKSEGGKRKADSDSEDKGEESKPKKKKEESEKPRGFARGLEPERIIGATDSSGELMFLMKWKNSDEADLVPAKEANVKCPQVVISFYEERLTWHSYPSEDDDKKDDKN

SMILES	Potency
O=C(O)CCn1cnc2onc(-c3ccccc3Cl)c2c1=O	inconclusive: 39.8 µM [inhibitor, partial curve]
ClCc1csc(-c2ccc(Cl)cc2)n1	inactive
CN(Cc1ccccc1)C(=O)C1CCN(Cc2ccc(F)cc2)CC1	inconclusive: 39.8 µM [inhibitor, partial curve, poor fit]
CC(C)Cn1c(SCC(=O)N2CCN(C(=O)c3ccco3)CC2)nc2ccccc2c1=O	inactive
CCOC(=O)CCNC(C(=O)OCC)c1ccccc1 (stereo not given)	inconclusive: 31.6 µM [inhibitor, partial curve]
O=C(CCN1C(=O)/C(=C/c2ccco2)SC1=S)Nc1ccc(O)cc1C(=O)O	active: 17.8 µM
O=C(c1ccc2oc(CCCc3ccccc3)nc2c1)N1CCCC1	inactive
c1ccc2c(c1)ncn2CCOCCOCCn1cnc2ccccc21	inactive
CCn1c(O)c(/C=C/C=C/C=Nc2ccccc2)sc1=S	inconclusive: 44.7 µM [inhibitor, partial curve, poor fit]
CCOC(=O)c1ccc(NC(=O)CSc2nccn2-c2ccc(OCC)cc2)cc1	inactive
COc1ccc(NC(=O)C(C)n2nnc3sc(-c4ccccc4)cc3c2=O)cc1Cl (stereo not given)	inconclusive: 10 µM [inhibitor, full curve]
S=P(N1CC1)(N1CC1)N1CC1	inconclusive: 4.47 µM [inhibitor, full curve, poor fit]
Cc1ccc(C(=O)Nc2ccc(Nc3ccccc3)cc2)cc1Br	inconclusive: 22.4 µM [inhibitor, partial curve, poor fit]
CCN(Cc1ccncc1)Cc1ccc(OC)cc1OC	inconclusive: 14.1 µM [inhibitor, full curve, poor fit]
O=[N+]([O-])c1cccc2c3c([nH]c12)CCCC3	inconclusive: 39.8 µM [inhibitor, partial curve]
Cc1ccc(N=Cc2cc3c(cc2[N+](=O)[O-])OCO3)cc1[N+](=O)[O-]	inactive
CN1N=C2c3ccccc3CCC2C1c1ccc(Cl)cc1 (stereo not given)	inactive
COc1cc(C(=S)N(C)C)ccc1O	inconclusive: 11.2 µM [inhibitor, full curve]
COC(=O)CCc1sc(NC2CCCCC2)nc1-c1ccc(OC)cc1	inconclusive: 39.8 µM [inhibitor, partial curve, poor fit]
COc1ccccc1N1CCN(c2nc3c(S(=O)(=O)c4ccc(C)c(C)c4)nnn3c3ccc(Cl)cc23)CC1	inactive
S=c1[nH]nc(-c2ccc(Cl)cc2Cl)n1Cc1ccccc1	inconclusive: 7.94 µM [inhibitor, full curve, poor fit]
Cc1cccc(-c2nc(SCC(=O)NCc3ccco3)c3c(=O)n(C)c(=O)n(C)c3n2)c1	inactive
COc1ccc([N+](=O)[O-])cc1NC(=O)CCN1CCOCC1	inactive

SMILES	Potency
Cc1cc(C)cc(-n2ccnc2SCC(=O)Nc2ccc3c(c2)OCCO3)c1	inconclusive: 15.8 µM [inhibitor, full curve, poor fit]
O=C(/C=C/c1ccc(O)c(O)c1)c1ccccc1O	active: 44.7 µM
Clc1ccc(Cl)c(OCCN2CCCC2)c1	inconclusive: 28.2 µM [inhibitor, partial curve]
Cn1cccc1-c1nc2ccc(NC(=O)c3ccco3)cc2[nH]1	inconclusive: 35.5 µM [inhibitor, partial curve, poor fit]
O=C(Nc1ccc(C(=O)N2CCC(N3CCCC3)CC2)cc1)c1ccc(Br)o1	inconclusive: 50.1 µM [inhibitor, partial curve, poor fit]
CCOC(=O)c1[nH]n(-c2ccc(Cl)cc2)c(=O)c1C	inconclusive: 39.8 µM [inhibitor, single point]
O=C(NNC(=S)NC1CCCCC1)c1cccc(S(=O)(=O)Nc2ccccc2Cl)c1	inconclusive: 35.5 µM [inhibitor, partial curve, poor fit]
COc1ccc(NS(=O)(=O)c2ccc3oc(Nc4ccc5c(c4)OCCO5)nc3c2)cc1	inconclusive: 50.1 µM [inhibitor, partial curve]
CCCCC(=O)Nc1ccc(NC(=O)c2ccc([N+](=O)[O-])cc2Cl)cc1OC	inactive
O=C(c1ccccc1)c1ccc(Oc2ccc([N+](=O)[O-])cc2[N+](=O)[O-])cc1	inconclusive: 7.94 µM [inhibitor, full curve]
CCN1C(=O)C(=Cc2cccc(OC)c2Oc2ccc([N+](=O)[O-])cc2[N+](=O)[O-])SC1=S	inconclusive: 15.8 µM [inhibitor, partial curve]
Cc1c(C(=O)O)sc2nc(CSc3ncc(C(F)(F)F)cc3Cl)[nH]c(=O)c12	inconclusive: 56.2 µM [inhibitor, single point]
COc1ccc(/C=C(\C#N)C(=O)Nc2cc(S(=O)(=O)N3CCOCC3)ccc2N2CCCC2)cc1	inconclusive: 5.62 µM [inhibitor, full curve]
O=[N+]([O-])c1ccccc1Nc1nc(-c2cccnc2)cs1	inconclusive: 35.5 µM [inhibitor, full curve]
COc1ccc2cc(-c3[nH]ncc3CN3C[C@@H]4CCC[C@H]3C4)ccc2c1	inactive
CCC(C)[C@H]1CNC(=S)N1CCC12CC3CC(CC(C3)C1)C2 (stereo not given in full)	inactive
CCOC(=O)C(C(C)=O)c1c(Br)c(O)c(O)c2c(C(=O)c3ccc(C)cc3)coc12 (stereo not given)	inconclusive: 17.8 µM [inhibitor, full curve]
N#Cc1ccc(C(=O)Nc2nnc(-c3cccs3)o2)cc1	inactive
Cc1ccc(S(=O)(=O)c2nc(-c3ccco3)oc2SCc2ccccc2Cl)cc1	inactive
CCN1CCN(CC(=O)c2ccc(C)cc2)CC1	inconclusive: 15.8 µM [inhibitor, full curve, poor fit]
Nc1ccccc1Sc1nc2ccccc2[nH]1	inconclusive: 56.2 µM [inhibitor, single point]
CCOC(=O)c1c(C)nc2c(c1-c1cc(OC)ccc1OC)C(=O)c1ccccc1-2	inconclusive: 28.2 µM [inhibitor, single point]
